Values quoted from earlier work in patent US20240016871A1, “Non-toxic furocoumarin-rich plant extracts and related compositions for use as antimicrobial substance or medicament and other therapeutic uses” (ICE-P LIFE, S.L., priority 2020, published 2024).

Tested on: COVID19
Details: in vivo

Molecule	effect in reducing COVID19-confirmed 28-day mortality
CCN(CCO)CCCC(C)Nc1ccnc2cc(Cl)ccc12 (centres unmarked) [hydroxychloroquine]	little or no effect
lopinavir/ritonavir	little or no effect
